Assay results taken from publication PMC4336329 (PLoS ONE, 2015).
About 14,000 (4.5%) of roughly 310,000 compounds showed an effect of 50% or more. Effects have a minus sign here. This is one part of the list.

Each compound was assayed against human ether-à-go-go-related gene (hERG) potassium channel (human, UniProt Q12809) (assay: primary screen, population patch clamp on CHO cells stably expressing hERG).
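Note: peak tail current of the secondary pulse compared with the same well before compound.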

human ether-à-go-go-related gene (hERG) potassium channel, sequence (Q12809 whole entry, looked up): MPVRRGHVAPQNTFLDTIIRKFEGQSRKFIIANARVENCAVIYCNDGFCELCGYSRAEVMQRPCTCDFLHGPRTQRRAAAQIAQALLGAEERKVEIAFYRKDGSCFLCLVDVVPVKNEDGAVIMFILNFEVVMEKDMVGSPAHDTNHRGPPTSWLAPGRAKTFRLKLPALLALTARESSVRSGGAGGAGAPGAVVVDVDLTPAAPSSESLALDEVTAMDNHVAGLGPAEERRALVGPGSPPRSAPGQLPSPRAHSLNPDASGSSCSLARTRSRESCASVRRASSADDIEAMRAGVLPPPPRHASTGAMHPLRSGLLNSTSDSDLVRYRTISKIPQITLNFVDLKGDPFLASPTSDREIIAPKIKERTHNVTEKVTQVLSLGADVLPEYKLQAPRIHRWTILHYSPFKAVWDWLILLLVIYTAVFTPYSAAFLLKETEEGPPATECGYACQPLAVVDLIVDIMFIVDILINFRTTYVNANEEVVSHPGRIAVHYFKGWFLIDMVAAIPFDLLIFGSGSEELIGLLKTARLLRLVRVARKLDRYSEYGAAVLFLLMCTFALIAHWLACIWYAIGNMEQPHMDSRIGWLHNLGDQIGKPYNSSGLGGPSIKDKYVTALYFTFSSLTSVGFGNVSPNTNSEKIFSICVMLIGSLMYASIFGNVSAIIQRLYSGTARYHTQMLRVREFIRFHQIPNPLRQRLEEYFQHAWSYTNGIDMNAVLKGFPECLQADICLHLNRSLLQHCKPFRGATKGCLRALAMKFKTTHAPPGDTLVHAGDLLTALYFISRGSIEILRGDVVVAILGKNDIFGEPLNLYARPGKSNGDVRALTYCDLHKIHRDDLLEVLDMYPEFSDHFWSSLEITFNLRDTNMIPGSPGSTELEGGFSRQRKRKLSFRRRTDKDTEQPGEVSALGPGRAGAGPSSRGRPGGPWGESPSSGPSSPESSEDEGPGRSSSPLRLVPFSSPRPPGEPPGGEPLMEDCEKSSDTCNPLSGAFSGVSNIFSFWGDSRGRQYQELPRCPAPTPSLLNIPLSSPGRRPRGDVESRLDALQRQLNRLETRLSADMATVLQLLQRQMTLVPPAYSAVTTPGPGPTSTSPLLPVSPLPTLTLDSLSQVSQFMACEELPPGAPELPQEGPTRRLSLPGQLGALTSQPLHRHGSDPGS

Row | Compound | hERG current change (%, negative = inhibition) at 10uM [%]
1 | CCOc1ccc(N(CC(=O)NC2CCCC2)S(=O)(=O)c2c(C)[nH]c(=O)[nH]c2=O)cc1 | 4.61
2 | Cc1ccc(C2N(c3ccc(Cl)c(Cl)c3)C(=O)C3CCCN32)o1 (stereo not drawn) | -10.1
3 | CCN1CCN(C(=S)c2ccc(OCC(=O)Nc3ccc(OC)cc3)cc2)CC1 | 11.2
4 | CN(C)C1=C(Cl)C(=O)N(c2ccc(Cl)c(Cl)c2)C1=O | 12.2
5 | O=[n+]1c2c(n([O-])c3cc(Br)ccc31)CCC2 | -2.98
6 | CCOC(=O)CN1C(=O)C(Sc2n[nH]c(-c3cccc(C)c3)n2)CCc2ccccc21 (stereo not drawn) | 6.35
7 | Cc1cc(C(=O)N/N=C2\CC(=O)CC(C)(C)C2)n[nH]1 | 5.67
8 | Cc1cc(C(=O)N/N=C/c2cn[nH]c2-c2ccccc2)cs1 | -4.74
9 | O=C(NC(=S)NC1CCSC1=O)c1cccc([N+](=O)[O-])c1 (stereo not drawn) | -1.9
10 | Cc1nc2ccccc2n1CCc1ccccc1 | -12.8
11 | Cc1ccnc(N2CCC(C(=O)NCc3ccccc3F)CC2)n1 | 15.4
12 | Cc1nc2ccccc2n1CC(=O)N/N=C/c1cccnc1 | 9.18
13 | Cc1ccc(NC(=O)C2COc3ccccc3O2)nc1 (stereo not drawn) | 13.9
14 | O=C(CN1C(=O)S/C(=C\C=C\c2ccccc2)C1=O)Nc1cccc(O)c1 | -12.8
15 | CC1CCc2cc(F)ccc2N1C(=O)CCC(=O)O (stereo not drawn) | 2.53
16 | CC1(C)CC(=O)c2c(O)cc(OCC(=O)N3CCN(c4ccc(F)cc4)CC3)cc2O1 | -47.1
17 | Cc1cc(Cl)ccc1OCC(=O)NNC(=O)c1cccs1 | 7.9
18 | CSCCC(NS(=O)(=O)c1ccc(Cl)cc1)C(=O)OCC(=O)N1CCOCC1 (stereo not drawn) | -14.1
19 | CC1CCC(NC(=S)NCCN(C)C)CC1 (stereo not drawn) | 18.1

Row | Compound | hERG current change (%, negative = inhibition) at 10uM [%]
20 | COc1ccc(C(C(=O)NC2CCCC2)N(CCN(C)C)C(=O)c2snc(C(N)=O)c2N)cc1 (stereo not drawn) | -25
21 | CCOC(=O)c1c(NC(=O)CSc2nnc(N)s2)sc(C)c1-c1ccc(C)cc1 | 14.4
22 | Cc1nn(-c2ccccc2)c(-c2ccccc2)c1C(=O)O | 7.74
23 | COc1ccccc1N1CCN(CC(=O)Nc2nccs2)CC1 | -19.3
24 | O=C(COc1ccc2ccc(=O)oc2c1)Nc1ccc2c(c1)OCCO2 | -7.75
25 | CCOc1cc(/C=C2\SC(=O)N(CC(=O)Nc3ccccc3F)C2=O)cc([N+](=O)[O-])c1O | -4.42
26 | CCOc1ccc(CCNC(=O)c2cnc(C)cn2)cc1OCC | 13.8
27 | O=C(c1cc(-c2ccccc2O)on1)N1CCCCCC1 | 8.75
28 | O=C1/C(=C/c2cccc(Br)c2)SC(=S)N1CCC(=O)N(CCO)c1ccccc1 | 16.7
29 | Cc1c(NC(=S)NC(=O)C(C)(C)C)cccc1[N+](=O)[O-] | -3.64
30 | O/C(=C\c1nc2ccccc2[nH]1)c1cccs1 | -23.2
31 | Cc1ccc(N/N=C2\CS(=O)(=O)N(C)c3ccsc32)cc1 | 7.82
32 | O=C(NC1Cc2ccccc2C1)c1cc(COc2cccc(C(F)(F)F)c2)on1 | 21.6
33 | COc1ccc(-c2csc(Nc3cc(C)ccn3)n2)cc1OC | 13.6
34 | CC(=O)Nc1ccc(S(=O)(=O)NCCc2ccccc2)cc1 | 0.996
35 | CCCCSCCCNC(=O)c1ccc2c(c1)N(CC)C(=O)c1ccccc1S2=O (stereo not drawn) | -11.1
36 | CCOC(=O)c1cnc2c(C(=O)OC)cccc2c1NCc1ccco1 | -70.2
37 | COC(=O)C1=C[C@@H](C(=O)OC)C2C3=C(C(=O)C24CCCCC4)[C@H](C)n2c(=O)n(C)c(=O)n2[C@@H]3C1 (stereo partly drawn) | 4.06
38 | COc1ccc(NS(=O)(=O)c2cccs2)c(OC)c1 | -12.2

Row | Compound | hERG current change (%, negative = inhibition) at 10uM [%]
39 | O=C(N1CCOCC1)N(Cc1cccs1)C1CCCC1 | 7.75
40 | Cc1ccc(Sc2cc(C(=O)c3ccccc3C(=O)O)ccc2[N+](=O)[O-])cc1 | 18.8
41 | COC(=O)c1ccsc1NC(=O)CCS(=O)(=O)c1ccc(Cl)cc1 | 6.67
42 | Cc1ccc(S(=O)(=O)NC(=NCC(=O)O)c2ccccc2)cc1 | 2.94
43 | COc1ccccc1CNC(=O)COC(=O)c1ccc(C)c(S(=O)(=O)N2CCOCC2)c1 | 2.68
44 | CCOC(=O)C1(C(F)(F)F)N=C(c2ccccc2F)OC(N(C)C)=N1 (stereo not drawn) | 0.889
45 | Cc1ccc2ncc([N+](=O)[O-])n2c1 | -5.11
46 | COC(=O)c1ccccc1NC(=O)CSc1nnc(-c2ccncc2)o1 | 2.32
47 | Cc1ccc(C(=O)NC2CCN(C(=O)N3CCOCC3)CC2)cc1 | 8.72
48 | COc1ccc(NC(=S)N2CCCN(Cc3cc(C)ccc3C)C2)cc1 | -12.7
49 | CCN=C1SC(CC(=O)NCC)C(=O)N1CC (stereo not drawn) | -12.5
50 | Cc1cc(S(=O)(=O)N2CCOCC2)ccc1OCC(=O)N1CCCCC1 | 14.1
51 | NC1=NC(=O)C(CC(=O)NCc2ccccc2)S1 (stereo not drawn) | 16.1
52 | CCCC(=O)Nc1ccc2c(c1)C(=O)N(CCC(=O)O)C2=O | 1.2
53 | Cc1cc(NC(=O)NC(=O)c2cccc(OC(F)(F)C(F)F)c2)n[nH]1 | 7.39
54 | CCOC(=O)c1ccc(NC(=O)CC2C(=O)N(c3ccc(F)cc3)C(=O)N2CCC(C)C)cc1 (stereo not drawn) | -8.43
55 | O=C1CC(Sc2nnnn2-c2ccccc2)C(=O)N1c1cccc(Cl)c1 (stereo not drawn) | -7.3
56 | Cc1occc1-c1nnc(SCC(=O)Nc2ccccc2)n1C(C)c1ccccc1 (stereo not drawn) | -37.6
57 | O=C(COC(=O)CCCC1=NS(=O)(=O)c2ccccc2N1)Nc1ccccc1 | 24.7
